The record followed here is article PMC4336329 (PLoS ONE, 2015).

Molecules are shown by their SMILES. The campaign covered roughly 310,000 compounds. About 14,000 (4.5%) showed an effect of 50% or more. The effect is printed as a negative number. Some of the results follow.
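Also: peak tail current of the secondary pulse compared with the same well before compound.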

human ether-à-go-go-related gene (hERG) potassium channel, sequence (Q12809 whole entry, looked up): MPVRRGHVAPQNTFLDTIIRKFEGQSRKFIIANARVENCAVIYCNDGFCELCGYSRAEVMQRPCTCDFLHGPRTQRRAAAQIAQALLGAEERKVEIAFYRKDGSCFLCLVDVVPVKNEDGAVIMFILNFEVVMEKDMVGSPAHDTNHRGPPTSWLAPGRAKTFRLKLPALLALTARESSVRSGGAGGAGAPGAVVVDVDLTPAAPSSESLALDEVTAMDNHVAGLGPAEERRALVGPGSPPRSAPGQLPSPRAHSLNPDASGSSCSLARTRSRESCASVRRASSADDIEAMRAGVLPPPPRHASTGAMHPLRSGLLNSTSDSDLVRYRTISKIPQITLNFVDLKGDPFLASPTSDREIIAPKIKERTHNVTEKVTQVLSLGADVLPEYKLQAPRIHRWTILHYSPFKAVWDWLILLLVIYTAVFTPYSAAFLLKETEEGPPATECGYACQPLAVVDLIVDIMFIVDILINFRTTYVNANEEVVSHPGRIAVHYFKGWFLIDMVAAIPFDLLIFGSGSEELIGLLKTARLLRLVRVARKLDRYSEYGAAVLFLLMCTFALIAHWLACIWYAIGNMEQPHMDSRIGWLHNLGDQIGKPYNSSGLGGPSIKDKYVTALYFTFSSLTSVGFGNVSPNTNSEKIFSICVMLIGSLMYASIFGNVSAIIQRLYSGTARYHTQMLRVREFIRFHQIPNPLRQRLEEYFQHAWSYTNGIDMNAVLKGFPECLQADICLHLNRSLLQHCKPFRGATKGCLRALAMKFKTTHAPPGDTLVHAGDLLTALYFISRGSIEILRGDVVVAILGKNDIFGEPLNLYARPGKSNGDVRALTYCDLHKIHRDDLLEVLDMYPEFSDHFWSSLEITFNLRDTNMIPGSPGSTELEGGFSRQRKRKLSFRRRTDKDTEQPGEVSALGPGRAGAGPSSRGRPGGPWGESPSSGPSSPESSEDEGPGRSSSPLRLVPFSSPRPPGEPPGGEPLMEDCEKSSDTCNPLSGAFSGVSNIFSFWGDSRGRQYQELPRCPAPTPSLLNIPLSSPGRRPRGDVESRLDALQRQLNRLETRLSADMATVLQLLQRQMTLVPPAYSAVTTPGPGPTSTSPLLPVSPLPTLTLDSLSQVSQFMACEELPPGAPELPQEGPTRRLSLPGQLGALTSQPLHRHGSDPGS

The test has as its target human ether-à-go-go-related gene (hERG) potassium channel (human, UniProt Q12809). The test can be described thus: primary screen, population patch clamp on CHO cells stably expressing hERG.
Turning to `CN(CC(=O)Nc1ccccc1Br)C(=O)c1ccccc1Cc1ccccc1`, the “hERG current change (%, negative = inhibition) at 10uM” value is -20.2%.
`Cc1ccc(C(C)C)cc1OCC(=O)Nc1ccc(N2CCCCC2)cc1`: the “hERG current change (%, negative = inhibition) at 10uM” value stood at 17.8%.
As for `COCCn1nnnc1CN1CCSCC1.Cl`, the “hERG current change (%, negative = inhibition) at 10uM” value was found to be 29.7%.
As to `O=[N+]([O-])c1ccc(-c2cnc[nH]2)cc1`, the “hERG current change (%, negative = inhibition) at 10uM” value is given as -10.5%.
As for `O=C(CCc1c[nH]c2ccccc12)NC(Cc1c[nH]c2ccccc12)C(=O)O` (stereo not drawn), the “hERG current change (%, negative = inhibition) at 10uM” value amounted to 21.2%.
Then `CC(C)(C)OC(=O)NCCCCCc1nnc(SCc2ccc(F)cc2)o1`, with -7.18%.
The result for `Cc1nn(C)c(C)c1CN(C)S(=O)(=O)c1ccc(F)cc1` reads -4.76%; that for `CN1OCC(S(=O)(=O)c2ccccc2)C1c1ccccc1` (stereo not drawn), 2.44%.
On to `COc1ccc(-n2nc(C(=O)NCC(=O)N3CCOCC3)c3ccccc3c2=O)cc1Cl`, for which the “hERG current change (%, negative = inhibition) at 10uM” value stood at 8.9%.
Consider `C[N+]12CCCCC1C(COC(=O)c1ccc3c(c1)OCO3)CCC2.[I-]` (stereo not drawn), for which the “hERG current change (%, negative = inhibition) at 10uM” value was 15.3%.
As for `CCn1c(COc2ccccc2C)nnc1SCC(=O)N1CCN(c2ccccc2)CC1`, the “hERG current change (%, negative = inhibition) at 10uM” value was -21.5%.
As for `CC1CCCN(C(=O)CCc2ccccc2)C1` (stereo not drawn), the “hERG current change (%, negative = inhibition) at 10uM” value is reported as -5.7%.
As to `Cc1ccc(P(=O)(OCCN2CCOCC2)C(C)(C)C)o1` (stereo not drawn), the “hERG current change (%, negative = inhibition) at 10uM” value is given as -4.4%.
Then `O=C(Nc1ccc(Oc2ccccc2)nc1)C1CCN(Cc2cccc(F)c2)CC1`, with -49.8%.
Take `Cc1cc(NCc2ccc(F)cc2Cl)n2nnnc2n1`: the “hERG current change (%, negative = inhibition) at 10uM” value is given as 7.1%.
`COc1ccc(/C=N/n2c(-c3ccco3)nc3ccccc3c2=O)cc1`: the “hERG current change (%, negative = inhibition) at 10uM” value was 10.4%.
For `COc1cc2cc(CN(Cc3cccnc3)C(=O)Nc3ccccc3)c(=O)[nH]c2cc1OC`, the “hERG current change (%, negative = inhibition) at 10uM” value is given as -21.8%.
Then `O=C(O)C1CCCCN1S(=O)(=O)c1ccc2ccccc2c1` (stereo not drawn), with -8.26%.
Take `COCCNC(=O)CSc1nc2ccccc2c(=O)n1CC1CCCO1` (stereo not drawn): the “hERG current change (%, negative = inhibition) at 10uM” value is -11.9%.
The result for `COC(=O)Cn1ccc(N(C)C)c(C#N)c1=O` reads 16.5%; that for `COc1ccc(OCC(=O)Nc2c3c(nn2-c2ccc(OC)cc2)CS(=O)(=O)C3)cc1`, 4.26%.
Then `CC(C)C(=O)c1cc2c(cc1NC(=O)Nc1cccc3ccccc13)OCCO2`, with -11%; and `NS(=O)(=O)c1ccc(NC(=S)Nc2nn(Cc3ccc(Cl)cc3Cl)cc2Cl)cc1`, with 13.4%.
`N#Cc1cc2c(nc1SCC(=O)Nc1sc3c(c1C#N)CCC3)CCC2`: the “hERG current change (%, negative = inhibition) at 10uM” value is 1.68%.
`CN1C2CCC1CC(N(CCc1ccccc1)C(=O)c1ccc(Cl)cc1)C2.Cl` (stereo not drawn): the “hERG current change (%, negative = inhibition) at 10uM” value was -83.2%.
In the case of `C[C@@H]1CC=C[C@H]2[C@H]1C(=O)N(Cc1ccccc1)[C@H]2c1ccc(/C=C/c2ccccc2)cc1F`, the “hERG current change (%, negative = inhibition) at 10uM” value amounted to 4.34%.
With `Cc1ccc(Cl)cc1NC(=O)Cn1c(C)csc1=O`, the “hERG current change (%, negative = inhibition) at 10uM” value was 16.2%.
The result for `O=C(NC1CCSc2ccccc21)c1cccc(Cl)c1` (stereo not drawn) reads 18%; that for `C=CCS(=O)(=O)N1CCCC(Cc2ccccc2C)(C(=O)OCC)C1` (stereo not drawn), 5.06%; that for `CN(C)c1ccc(C(=O)N2CC(=O)N(CCc3ccccc3)C(=O)C2)cc1`, -10.5%.
The result for `O=c1[nH]c(SCc2ccccc2Cl)nc2c1CCC2` reads -4.58%.
Regarding `CC1=C(C#N)C(/C=N/OCc2ccc(F)cc2Cl)CC(=O)N1` (stereo not drawn), the “hERG current change (%, negative = inhibition) at 10uM” value is listed as -4.43%.
Regarding `CC(NC(=O)C1CCN(C(=O)Nc2ccccc2)CC1)c1ccc(Cl)cc1` (stereo not drawn), the “hERG current change (%, negative = inhibition) at 10uM” value is -24.8%.
Consider `COCCNC(=O)Cn1c(=O)n(C)c2ccccc21`, for which the “hERG current change (%, negative = inhibition) at 10uM” value was determined as 11.3%.
The result for `N/C(=N\OC(=O)c1cccc2ccccc12)c1ccc(Br)cc1` reads -7.48%; that for `Br.CNc1nc2ccccc2n1CC(=O)c1ccccc1`, 9.8%; that for `CCC(C)NC(=O)C1CCN(S(=O)(=O)c2cccc3nonc23)CC1` (stereo not drawn), 9.13%.
Consider `Nc1nc2sc3c(c2cc1C(=O)NCC(=O)O)CCCC3`, for which the “hERG current change (%, negative = inhibition) at 10uM” value came out at 18.2%.
As to `O=[N+]([O-])c1ccc2nc(C3CCCCC3)[nH]c2c1`, the “hERG current change (%, negative = inhibition) at 10uM” value was -5.42%.
On to `O=C(CCNC(=O)c1ccco1)NCc1ccccc1`, for which the “hERG current change (%, negative = inhibition) at 10uM” value is recorded as -8.78%.
For the compound `Cc1ccc(NC(=O)C(NCc2ccccn2)c2ccccc2)cc1` (stereo not drawn), the “hERG current change (%, negative = inhibition) at 10uM” value amounted to 0.256%.
For `Cc1ccc(C)c(NNC(N)=S)c1`, the “hERG current change (%, negative = inhibition) at 10uM” value came to 14%.
The result for `CCc1ccc(OCC(=O)NNC(=O)Cc2ccc(S(=O)(=O)N3CCOCC3)s2)cc1` reads -29.7%; that for `CN(c1ccccc1)S(=O)(=O)c1ccc(C(=O)N2CCc3ccccc3C2)cc1`, -28%.
Turning to `COC(=O)c1c(-c2ccc(C)cc2)csc1NC(=S)NC(=O)c1ccc(F)cc1`, the “hERG current change (%, negative = inhibition) at 10uM” value came to 6.36%.
Regarding `CC(=O)c1ccc(NC(=O)/C(=C\c2ccccc2)NC(=O)c2ccco2)cc1`, the “hERG current change (%, negative = inhibition) at 10uM” value was -17.8%.
Consider `COC(=O)c1nn(-c2ccc(Oc3ccccc3)cc2)c(=O)cc1O`, for which the “hERG current change (%, negative = inhibition) at 10uM” value worked out at 26.5%.
Then `O=C(CN1CCCCC1)NCC(=O)Nc1ccc(Br)cc1C(=O)c1ccccc1`, with -79.1%; and `CCCCC(=O)Nc1nnc(C)s1`, with 4.73%.
In the case of `Cc1ccc(-c2nc(CSCC(=O)NCC3CCCO3)c(C)o2)cc1` (stereo not drawn), the “hERG current change (%, negative = inhibition) at 10uM” value was -1.25%.
The result for `CN(CC(=O)Nc1ccc(F)cc1)S(=O)(=O)c1ccc2c(c1)c(=O)n(C)c(=O)n2C` reads 13.7%; that for `O=C1C=C(c2cccnc2)CCC1`, 13.5%.
Then `COc1ccc(Nc2nc3[nH]c(=O)cc(O)c3s2)cc1`, with 14.2%; and `CCCCn1c(N)c(N(Cc2ccccc2OC)C(=O)c2cc(=O)[nH]c3ccccc23)c(=O)[nH]c1=O`, with 17.1%; and `CCC(C)(C)NC(=O)C(OC(=O)c1cc2sccc2n1C)c1ccc(OC)cc1` (stereo not drawn), with -6.58%.
With `O=C(Nc1ccccn1)Nc1cccs1`, the “hERG current change (%, negative = inhibition) at 10uM” value worked out at 13.4%.
As for `CC(=O)NS(=O)(=O)c1ccc(NC(=S)NC(=O)CC(C)C)cc1`, the “hERG current change (%, negative = inhibition) at 10uM” value turned out to be 25.5%.
Then `COC(=O)COc1ccc(S(=O)(=O)NCCC2=CCCCC2)cc1Cl`, with -10.1%.
Regarding `CCCOc1nc(SCCC)nc2c1cnn2-c1ccccc1`, the “hERG current change (%, negative = inhibition) at 10uM” value was 16.5%.
Consider `CCC(C)NC(=O)/C(=C/c1ccco1)c1ccccc1` (stereo not drawn), for which the “hERG current change (%, negative = inhibition) at 10uM” value is given as -0.00562%.
Consider `COc1ccc(C)cc1S(=O)(=O)N(C)CC(=O)Nc1ccc2c(c1)OCO2`, for which the “hERG current change (%, negative = inhibition) at 10uM” value is on record as -6.06%.
On to `CC[N+](CC)(CC)CCC(O)(c1ccccc1)C1CCCCC1.[Cl-]` (stereo not drawn), for which the “hERG current change (%, negative = inhibition) at 10uM” value was 11.2%.
The result for `CC1Cc2ccccc2N1C(=O)C1CC(=O)N(c2ccccc2)C1` (stereo not drawn) reads 1.63%; that for `COc1ccccc1NC(=O)CSc1nnc(C2CCCCC2)n1C`, 3.77%.
In the case of `NC1=NC(=Nc2cccc(S(N)(=O)=O)c2)c2ccccc21`, the “hERG current change (%, negative = inhibition) at 10uM” value is 8.88%.
Consider `OCC1(Cc2ccccc2)CCN(CCCC2CCCC2)CC1`, for which the “hERG current change (%, negative = inhibition) at 10uM” value is listed as -76.8%.
`O=C(CC(=O)c1ccccc1)Nc1ccc2c(c1)OCCO2`: the “hERG current change (%, negative = inhibition) at 10uM” value is listed as -4.09%.
As for `COC(=O)c1sc(S(=O)(=O)N2CCC(C(N)=O)CC2)c(C(=O)OC)c1C`, the “hERG current change (%, negative = inhibition) at 10uM” value was -19.6%.
As for `Cc1cc(NS(=O)(=O)c2ccc(NC(=O)CCN3C(=O)c4ccccc4C3=O)cc2)no1`, the “hERG current change (%, negative = inhibition) at 10uM” value is on record as 10.2%.
In the case of `COc1ccc(O)c(-c2nc(N)nc(N)n2)c1`, the “hERG current change (%, negative = inhibition) at 10uM” value is recorded as -5.7%.
Turning to `CC(C)(C)C(=O)N1CCN(c2ccc(Cl)cc2[N+](=O)[O-])CC1`, the “hERG current change (%, negative = inhibition) at 10uM” value is on record as -39.3%.
As to `Cc1cccc(OCC(=O)N(Cc2ccc(F)cc2)C2CCS(=O)(=O)C2)c1C` (stereo not drawn), the “hERG current change (%, negative = inhibition) at 10uM” value is recorded as -42.6%.
Consider `COc1ccc(NC(=O)COC(C)=O)cc1OC`, for which the “hERG current change (%, negative = inhibition) at 10uM” value was determined as 22.1%.
Take `O=C(Nc1ccc2c(c1)OCO2)C1CC(=O)N(CCc2ccccc2)C1` (stereo not drawn): the “hERG current change (%, negative = inhibition) at 10uM” value is reported as -19.8%.
The result for `CC(=O)Nc1cccc(OCC(=O)/C=C2\N(C)c3ccccc3C2(C)C)c1` reads 2.6%.
Turning to `CN1CCN(C(=O)c2ccc(Cl)c(S(=O)(=O)N3CCCCCC3)c2)CC1`, the “hERG current change (%, negative = inhibition) at 10uM” value is given as -26.3%.
For the compound `CC(=O)N1c2ccc(S(=O)(=O)N3CCCC3)cc2CC1C(=O)NCc1ccccc1F` (stereo not drawn), the “hERG current change (%, negative = inhibition) at 10uM” value stood at 11.2%.
Take `O=C(CSc1nc2ccccc2s1)Nc1ccc2c(c1)oc1ccccc12`: the “hERG current change (%, negative = inhibition) at 10uM” value turned out to be 4.02%.
`COc1ccc(-n2ncc3c2CC(C)(C)CC3NC(=O)CCc2c(C)noc2C)cc1` (stereo not drawn): the “hERG current change (%, negative = inhibition) at 10uM” value is given as -21.7%.
With `Cc1nc(SCC(=O)Nc2ccccc2Cl)c2c(C)c(C)sc2n1`, the “hERG current change (%, negative = inhibition) at 10uM” value is 9.21%.
On to `COc1cc(OC)c(CNC2CCCCCC2)cc1Br`, for which the “hERG current change (%, negative = inhibition) at 10uM” value is listed as -1.25%.
As to `COc1cc(/C=N/O)cc(Br)c1OCC(=O)NCc1ccccc1`, the “hERG current change (%, negative = inhibition) at 10uM” value is -27%.
For `N#C/C(C(=O)N1CCOCC1)=C1/SC(Cc2ccccc2)C(=O)N1c1ccccc1` (stereo not drawn), the “hERG current change (%, negative = inhibition) at 10uM” value was -13.6%.
In the case of `Cc1cccc(NC(=O)C2CCCN(S(=O)(=O)c3ccc4c(c3)oc(=O)n4C)C2)c1` (stereo not drawn), the “hERG current change (%, negative = inhibition) at 10uM” value is -18.3%.
Take `CC(C)OC(=O)c1cc(C(=O)c2cc(Cl)ccc2O)coc1=N`: the “hERG current change (%, negative = inhibition) at 10uM” value is 13.3%.
Then `CCOc1cc(CNc2ccc(N(C)C)cc2)cc(Br)c1OCC(=O)NC(C)(C)C`, with -17%; and `COc1cccc(NC(=O)N2CCCC2C(=O)NCc2ccccc2F)c1` (stereo not drawn), with -4.14%; and `CCOCC(=O)Nc1nc2ccc(C)cc2s1`, with -4.98%.
The result for `CSc1ccccc1NC(=O)Cn1nc([N+](=O)[O-])cc1C` reads 6.48%.
`CC(C)c1ccc(NC(=O)COc2ccc(F)cc2C(=O)c2cnn(-c3ccccc3)c2)cc1`: the “hERG current change (%, negative = inhibition) at 10uM” value came to 5.96%.
